# Source: the supplement of paper PMC8728848
# Some of the results follow.
# B1: MGL6A (Homo sapiens) (protein)
# chain: MTRTYENFQYLENKVKVQGFKNGPLPLQSLLQRLCSGPCHLLLSLGLGLLLLVIICVVGFQNSKFQRDLVTLRTDFSNFTSNTVAEIQALTSQGSSLEETIASLKAEVEGFKQERQAVHSEMLLRVQQLVQDLKKLTCQVATLNNNGEEASTEGTCCPVNWVEHQDSCYWFSHSGMSWAEAEKYCQLKNAHLVVINSREEQNFVQKYLGSAYTWMGLSDPEGAWKWVDGTDYATGFQNWKPGQPDDWQGHGLGGGEDCAHFHPDGRWNDDVCQRPYHWVCEAGLGQTSQESH
# Legend:
# Assay in all cases: glycan array binding signal (z-score within array); higher = stronger binding
# Settings in all cases: glycan notation: IUPAC condensed, linker removed
# [1] = target: Gal3S(b1-4)[Fuc(a1-3)]GlcNAc
# Procedure, shortened: (§1)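 Glycan array binding is given as a within-array Z-score, which can be read as non-binding when negative. The arrays, 3228 of them, came from the Consortium for Functional Glycomics database and were retained only where the protein sequence was available. Z-scores were averaged across arrays of the same protein sequence at different concentrations or buffers and across linkers.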
# [2] = target: Gal3S(b1-4)[Fuc(a1-3)]GlcNAc6S
# Procedure, shortened: as §1
# [3] = target: Gal3S4S(b1-4)GlcNAc
# Procedure, shortened: as §1
# [4] = target: Gal3S6S(b1-4)GlcNAc
# Procedure, shortened: as §1
# [5] = target: Gal3S6S(b1-4)GlcNAc6S
# Procedure, shortened: as §1
# [6] = target: Gal4S(b1-4)GlcNAc
# Procedure, shortened: as §1
# [7] = target: Gal4S6S(b1-4)GlcNAc
# Procedure, shortened: as §1
# [8] = target: Gal6P(b1-4)GlcNAc
# Procedure, shortened: as §1
# [9] = target: Gal6S(b1-3)GlcNAc
# Procedure, shortened: as §1
# [10] = target: Gal6S(b1-3)GlcNAc6S
# Procedure, shortened: as §1
# [11] = target: Gal6S(b1-4)Glc
# Procedure, shortened: as §1
# [12] = target: Gal6S(b1-4)Glc6S
# Procedure, shortened: as §1
# [13] = target: Gal6S(b1-4)GlcNAc
# Procedure, shortened: as §1
# [14] = target: Gal6S(b1-4)GlcNAc6S
# Procedure, shortened: as §1
# [15] = target: GalNAc(a1-3)Gal
# Procedure, shortened: as §1
# [16] = target: GalNAc(a1-3)GalNAc
# Procedure, shortened: as §1
# [17] = target: GalNAc(a1-3)GalNAc(b1-3)Gal(a1-4)Gal(b1-4)Glc
# Procedure, shortened: as §1
# [18] = target: GalNAc(a1-3)GalNAc(b1-3)Gal(a1-4)Gal(b1-4)GlcNAc
# Procedure, shortened: as §1
# [19] = target: GalNAc(b1-3)Gal
# Procedure, shortened: as §1
# [20] = target: GalNAc(b1-3)Gal(a1-4)Gal(b1-4)GlcNAc
# Procedure, shortened: as §1
# [21] = target: GalNAc(b1-3)Gal(a1-4)Gal(b1-4)GlcNAc(b1-3)Gal(b1-4)Glc
# Procedure, shortened: as §1
# [22] = target: GalNAc(b1-3)Gal(a1-6)Gal(b1-4)Glc
# Procedure, shortened: as §1
# [23] = target: GalNAc(b1-3)GalNAc
# Procedure, shortened: as §1
# [24] = target: GalNAc(b1-3)GlcNAc
# Procedure, shortened: as §1
# [25] = target: GalNAc(b1-4)Gal(b1-4)Glc
# Procedure, shortened: as §1
# [26] = target: GalNAc(b1-4)GlcNAc
# Procedure, shortened: as §1
# [27] = target: GalNAc(b1-4)GlcNAc(b1-2)Man
# Procedure, shortened: as §1
# [28] = target: GalNAc(b1-4)GlcNAc(b1-2)Man(a1-3)[GalNAc(b1-4)GlcNAc(b1-2)Man(a1-6)]Man(b1-4)GlcNAc(b1-4)GlcNAc
# Procedure, shortened: as §1
# [29] = target: GalNAc(b1-4)GlcNAc(b1-3)GalNAc(b1-4)GlcNAc
# Procedure, shortened: as §1
# [30] = target: GalNAc(b1-4)GlcNAc6S
# Procedure, shortened: as §1
# [31] = target: GalNAc(b1-6)GalNAc
# Procedure, shortened: as §1
# [32] = target: GalNAc3S(b1-4)GlcNAc
# Procedure, shortened: as §1
# [33] = target: GalNAc3S(b1-4)GlcNAc3S
# Procedure, shortened: as §1
# [34] = target: GalNAc3S(b1-4)[Fuc(a1-3)]GlcNAc
# Procedure, shortened: as §1
# [35] = target: GalNAc4S6S(b1-4)GlcNAc
# Procedure, shortened: as §1
# [36] = target: GalNAc6S(b1-4)GlcNAc
# Procedure, shortened: as §1
# [37] = target: Glc(a1-4)Glc
# Procedure, shortened: as §1
# [38] = target: Glc(a1-4)Glc(a1-4)Glc(a1-4)Glc
# Procedure, shortened: as §1
binder,measurement,setting,value
B1,glycan array binding signal (z-score),[1],-0.236
same,glycan array binding signal (z-score),[2],-0.255
same,glycan array binding signal (z-score),[3],-0.237
same,glycan array binding signal (z-score),[4],-0.187
same,glycan array binding signal (z-score),[5],-0.255
same,glycan array binding signal (z-score),[6],-0.35
same,glycan array binding signal (z-score),[7],-0.186
same,glycan array binding signal (z-score),[8],-0.28
same,glycan array binding signal (z-score),[9],-0.259
same,glycan array binding signal (z-score),[10],-0.311
same,glycan array binding signal (z-score),[11],-0.28
same,glycan array binding signal (z-score),[12],-0.313
same,glycan array binding signal (z-score),[13],-0.258
same,glycan array binding signal (z-score),[14],-0.326
same,glycan array binding signal (z-score),[15],2.73
same,glycan array binding signal (z-score),[16],0.623
same,glycan array binding signal (z-score),[17],0.958
same,glycan array binding signal (z-score),[18],0.335
same,glycan array binding signal (z-score),[19],4.13
same,glycan array binding signal (z-score),[20],1
same,glycan array binding signal (z-score),[21],3.34
same,glycan array binding signal (z-score),[22],4.47
same,glycan array binding signal (z-score),[23],1.21
same,glycan array binding signal (z-score),[24],3.67
same,glycan array binding signal (z-score),[25],-0.268
same,glycan array binding signal (z-score),[26],1.53
same,glycan array binding signal (z-score),[27],3.46
same,glycan array binding signal (z-score),[28],2.98
same,glycan array binding signal (z-score),[29],3.79
same,glycan array binding signal (z-score),[30],2.66
same,glycan array binding signal (z-score),[31],-0.247
same,glycan array binding signal (z-score),[32],-0.255
same,glycan array binding signal (z-score),[33],-0.241
same,glycan array binding signal (z-score),[34],-0.252
same,glycan array binding signal (z-score),[35],-0.264
same,glycan array binding signal (z-score),[36],3.46
same,glycan array binding signal (z-score),[37],-0.271
same,glycan array binding signal (z-score),[38],-0.253
